This is one part of the list. The full chains were built here from the parent and the listed change. Inactive controls read about 0.05.
B1: TEV protease; numbered along this chain (parent)
chain: MGESLFKGPRDYNPISSSICHLTNESDGHTTSLYGIGFGPFIITNKHLFRRNNGTLVVQSLHGVFKVKDTTTLQQHLVDGRDMIIIRMPKDFPPFPQKLKFREPQREERICLVTTNFQTKSMSSMVSDTSCTFPSGDGIFWKHWIQTKDGQCGSPLVSTRDGFIVGIHSASNFTNTNNYFTSVPKNFMELLTNQEAQQWVSGWRLNADSVLWGGHKVFMVKPEEPFQPVKEATQL

Variants of: B1
Experiment: raw area under fraction-flipped curve 0-4 h after induction (AUC4h, not background-subtracted), DNA-recorder readout of cleavage of the substrate (dimensionless); higher = more cleavage of the substrate by the protease variant
Settings: temperature: 34 °C; time window: 0-4 h after rhamnose induction
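Further: Bxb1 expression induced with 0.2% (w/v) L-rhamnose at OD600 near 0.5, cultures sampled hourly, flipped fraction per protease–substrate barcode pair counted by paired-end Illumina sequencing.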

Variant	area with substrate EALYFQS	area with substrate ECLYFQS	area with substrate EDLYFQS	area with substrate EELYFQS	area with substrate EHLYFQS	area with substrate EILYFQS	area with substrate EKLYFQS	area with substrate ELLYFQS	area with substrate EPLYFQS	area with substrate EQLYFQS	area with substrate ERLYFQS	area with substrate EVLYFQS	area with substrate EYLYFQS	area with substrate EGLYFQS	area with substrate EMLYFQS	area with substrate ESLYFQS	area with substrate EWLYFQS	area with substrate EFLYFQS	area with substrate ETLYFQS
G162H	0.103	0.0908	0.111	0.105	0.0927	0.0951	0.0891	0.0762	0.106	0.109	0.0824	0.104	0.0999	–	–	–	–	–	–
T176L	0.0431	0.0727	–	0.0708	0.065	0.0684	0.0753	–	0.0566	0.0606	–	0.0767	0.0848	0.0559	0.0833	0.0518	0.0921	–	–
K185P	0.173	0.109	0.0828	0.116	0.123	–	–	–	–	0.136	0.15	0.117	–	–	–	–	–	–	–
N177V	0.162	0.134	0.177	–	–	0.11	–	0.146	–	0.178	–	0.124	0.146	–	0.174	0.196	0.132	0.163	0.162
E189V	0.0947	0.0947	0.106	0.0867	0.0913	0.105	0.0896	0.0788	0.0943	0.108	0.102	0.1	0.0881	0.103	0.057	0.0843	0.0892	0.0866	0.123
E189I	0.146	0.0931	–	0.113	0.107	0.078	0.118	–	–	0.118	0.093	–	0.0876	0.0674	–	0.0728	0.0836	–	0.101
E189D	0.103	0.0822	0.134	0.134	–	0.0941	–	0.105	0.161	0.16	0.113	0.0703	–	0.0522	–	0.104	–	–	–
T181G	0.105	0.0973	0.111	0.0821	0.119	0.084	0.0814	–	0.0999	–	0.081	0.0762	0.0817	0.0741	0.0989	0.0843	–	–	0.0974
I167F	0.0805	0.0718	–	0.121	0.0888	0.0604	0.0682	0.0648	0.0922	0.0801	0.076	0.0814	0.118	0.099	0.0823	0.0838	0.0812	0.0782	0.0767
G153Y	0.059	0.0326	0.0288	0.047	–	–	0.0527	–	–	–	0.0608	0.0626	–	–	–	0.0914	–	–	–
G153N	0.0547	0.0477	0.0324	0.0567	0.0449	–	0.0467	0.0513	0.0384	–	–	–	–	–	0.0538	0.0439	–	0.0855	–
S158H	0.0508	0.0503	0.0569	0.115	0.0543	0.0559	–	0.0464	0.0464	–	0.0615	0.041	0.0556	0.0447	0.0329	0.0612	0.0603	–	0.0405
S171G	0.0602	0.0753	0.0756	–	–	0.0547	–	–	–	–	0.0725	–	–	–	0.0697	–	–	–	–
W144T	0.0916	0.115	0.124	–	0.1	0.0697	–	–	0.108	0.0982	–	0.0732	–	0.108	0.102	0.0861	0.14	0.0866	0.105
T159G	0.128	0.126	–	0.127	0.0968	–	0.109	0.0978	–	0.0893	–	–	–	–	0.144	–	0.127	–	0.104
T159Y	0.111	0.115	0.131	0.0801	0.102	0.0873	–	0.0796	0.109	0.123	0.122	0.0971	–	–	–	0.0945	0.0814	–	0.146
T159E	0.0905	0.105	0.111	–	–	0.104	0.097	0.124	–	–	0.0914	0.0772	0.0968	–	0.129	–	0.101	–	0.124
I145C	0.135	0.137	0.178	–	0.171	0.144	–	–	0.14	–	0.129	–	0.135	0.122	0.15	0.135	–	0.109	–
Q146N	0.116	0.111	0.134	–	–	0.097	–	0.118	–	0.14	0.109	0.0802	–	0.0995	–	0.119	0.0882	–	0.101
L191I	0.0873	0.103	–	0.111	0.121	0.116	0.12	–	–	0.108	–	0.0951	0.104	–	0.0998	–	–	–	–
R160A	0.118	–	0.116	–	–	0.103	0.124	0.095	0.108	–	0.0974	–	0.0936	0.0915	0.107	0.109	–	0.104	0.11
D149Q	0.0988	0.146	0.109	–	0.0809	0.075	–	0.0543	0.0968	–	0.0871	0.0765	0.0805	–	0.0894	0.0766	0.0731	–	–
D149S	0.0935	0.0923	0.131	0.139	0.122	–	0.104	0.0839	–	–	0.094	0.0768	–	0.0659	–	0.0869	–	0.09	0.0955
G166T	0.0409	0.0517	–	0.0511	0.0479	–	–	0.0532	–	0.0444	–	0.0529	–	0.0545	0.0477	0.0591	–	–	0.0641
G166S	0.0965	0.0519	0.046	0.0521	0.0802	0.0731	0.0442	–	0.0504	0.0559	0.0422	0.0571	–	0.0437	0.0596	0.0658	–	0.0664	–
G166Q	0.0463	0.0412	0.0484	–	–	–	–	–	0.0608	0.0482	0.056	–	–	–	0.0286	0.0112	–	0.0425	0.0417
V157N	0.0518	0.0434	0.0549	0.0539	–	0.0527	0.0484	0.0428	0.0493	0.0533	0.0599	0.0617	0.0585	0.0471	0.0528	0.0581	–	–	–
V157R	0.0834	0.0553	0.0653	–	0.0676	0.0676	0.0662	0.0572	0.0705	–	–	0.092	–	0.0638	0.0749	0.0692	0.0754	0.0664	0.0812
